{"source": "PubChem BioAssay AID686978", "about": "(National Center for Advancing Translational Sciences (NCATS), 2013)", "note": "“And” between values parts separate entries of the source, which are not always exact repeats. Equal entries are not always repeated. The whole screen tested about 420,000 compounds, of which about 64,000 (15%) were called active. The shares of active, inactive and inconclusive entries below differ from those in the screen. Calls follow the shape of the dose curve; as a rule, active = well fitted inhibition curve with a large enough effect; inconclusive = small, poorly fitted or top-dose-only effect; inactive = flat fitted curve, though single readings scatter. Potencies of inconclusive entries are doubtful fits and often do not repeat."}
{"assay": "qHTS for Inhibitors of human tyrosyl-DNA phosphodiesterase 1 (TDP1): qHTS in cells in absence of CPT; also: nearly all actives have a fitted effect of over 55% in size; also: potency is read from the fitted curve at half-maximal effect; tags tell the direction and shape of the fitted curve; as to activity change, negative = growth inhibition: % is scaled to controls: 0 for no effect and ±100 for the full control effect", "conditions": "DT40 Tdp1-/- hTDP1 cells, no CPT, ATP luminescence, 48 h; activity change, negative = growth inhibition: at 46.2 µM (top of the series) unless noted", "method_in_brief": "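Compound effects on proliferation are scored in DT40 Tdp1-/-;hTDP1 cells in the absence of CPT. ATP levels (CellTiter-Glo luminescence) are recorded after a ≥48 hr, 37 °C incubation.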"}
{"compound": "Cc1ccccc1CS(=O)(=O)Cc1ccc(C(=O)NCC2CCCO2)o1", "note": "(stereo unspecified)", "Potency": "inconclusive: 13 µM [inhibitor, partial curve]"}
{"compound": "CCc1ccc(CN(C)Cc2nc(Cc3ccc(OC)c(OC)c3)no2)nc1", "Potency": "inconclusive: 23.1 µM [inhibitor, single point]"}
{"compound": "COC(=O)c1oc2ccc(Br)cc2c1NC(=O)CN1CCN(C)CC1", "Potency": "inconclusive: 29.1 µM [inhibitor, single point]"}
{"compound": "COc1ccc(C)cc1-n1nnnc1SCC(=O)NC1CCS(=O)(=O)C1", "note": "(stereo unspecified)", "Potency": "inactive"}
{"compound": "CCOC(=O)c1c(C)[nH]c(C(=O)OCC(=O)NC2CCS(=O)(=O)C2)c1C", "note": "(stereo unspecified)", "Potency": "inconclusive: 0.651 µM [inhibitor, partial curve]"}
{"compound": "O=C(O)CCN1Cc2ccccc2C1=O", "Potency": "inactive"}
{"compound": "COCCCn1c2nc3ccccc3nc2c2c(=O)n(-c3ccccc3OC)cnc21", "Potency": "inactive"}
{"compound": "C#CCNC(=O)C1=C[C@@H](c2cn(C(C)=O)c3ccccc23)C[C@@H](OCCCCO)O1", "Potency": "inconclusive: 16.4 µM [inhibitor, single point]"}
{"compound": "CCc1c(C(=O)Nc2ccc(S(=O)(=O)N3CCOCC3)cc2)csc1C", "Potency": "active: 18.4 µM"}
{"compound": "CCCS(=O)(=O)NC(=O)C1(C)CCN(C(=O)c2c(-c3ccccc3)noc2C)C1", "note": "(stereo unspecified)", "Potency": "inactive"}
{"compound": "Cc1onc(-c2c(F)cccc2Cl)c1C(O)c1ccc(F)cc1", "note": "(stereo unspecified)", "Potency": "inconclusive: 16.4 µM [inhibitor, partial curve, poor fit]"}
{"compound": "C=CC[C@H](CC(=O)NCCO)C(=O)NC[C@@H](OC(=O)[C@H](CC=C)CC(=O)OC(C)(C)C)c1ccccc1", "Potency": "inconclusive: 16.4 µM [inhibitor, single point]"}
{"compound": "Cc1ccc(C(=O)NCCNC(=O)Cc2ccccc2)cn1", "Potency": "inactive"}
{"compound": "COc1ccc(N2C(=O)CC(N3CCCCC3)C2=O)cc1", "note": "(stereo unspecified)", "Potency": "inconclusive: 20.6 µM [inhibitor, single point]"}
{"compound": "O=[N+]([O-])c1ccc(S(=O)(=O)N2CCN(c3nc(-c4cccs4)nc4ccccc34)CC2)cc1", "Potency": "inactive"}
{"compound": "COC(=O)c1c(N)n(-c2ccc(NC(C)=O)cc2)c2nc3ccccc3nc12", "Potency": "active: 20.6 µM"}
{"compound": "CC(=O)N1CCC2(CC1)CN(c1cccc(-c3ccccc3)c1)C2", "Potency": "inconclusive: 16.4 µM [inhibitor, partial curve]"}
{"compound": "O=C(NCc1ccccc1)C1C(c2ccccc2)=Nc2ccccc2N1C(=O)c1ccncc1", "note": "(stereo unspecified)", "Potency": "inactive"}
{"compound": "O=C(Oc1ccccc1)N1CCN(C(=O)c2ccco2)CC1", "Potency": "inactive"}
{"compound": "CC1(c2ccc(OCC#N)cc2)C=C(c2ccc(OCC#N)cc2)n2nc(C(F)(F)F)nc2N1", "note": "(stereo unspecified)", "Potency": "inconclusive: 29.1 µM [inhibitor, single point]"}
{"compound": "COc1ccccc1/C=C/c1ccc2cccc(O)c2n1", "Potency": "inconclusive: 29.1 µM [inhibitor, single point]"}
{"compound": "Cc1ccc2nc(-c3ccco3)c(Cc3cccc(Cl)c3)n2c1", "Potency": "inconclusive: 23.1 µM [inhibitor, single point]"}
{"compound": "CCc1ccc(CNC(=O)Cn2nc(C)c3nn(-c4ccc(Cl)cc4)c(C)c3c2=O)cc1", "Potency": "inconclusive: 23.1 µM [inhibitor, single point]"}
{"compound": "CCOc1ccc(C(=O)NN2C(=O)C3C4C=CC(O4)C3C2=O)cc1", "note": "(stereo unspecified)", "Potency": "inactive"}
{"compound": "Cc1cccc(C)c1NC1=NC(=S)N(c2ccccc2)C12CCOC(C)(C)C2", "note": "(stereo unspecified)", "Potency": "inconclusive: 18.4 µM [inhibitor, single point]"}
{"compound": "COCCNC(=O)c1ccc2c(c1)ncn2-c1cc(C)ccc1OC", "Potency": "inactive"}
{"compound": "CCOc1ccc(NS(=O)(=O)c2c(C)nc3sc(CC)nn3c2=O)cc1", "Potency": "inconclusive: 20.6 µM [inhibitor, single point] and inconclusive: 23.1 µM [inhibitor, single point]"}
{"compound": "O=C(NCc1cccnc1)/C(=C/c1ccccc1)NC(=O)c1ccccc1", "Potency": "inconclusive: 11.6 µM [inhibitor, single point]"}
{"compound": "COc1cc(NC(=O)c2cc(C)no2)c(OC)cc1Cl", "Potency": "inactive"}
{"compound": "COc1ccccc1NS(=O)(=O)c1cc2c(cc1Cl)NC(=O)CO2", "Potency": "inconclusive: 29.1 µM [inhibitor, single point]"}
{"compound": "CCCN1CCc2c(sc3nc(SCC)n(-c4ccccc4)c(=O)c23)C1", "Potency": "active: 14.6 µM"}
{"compound": "Cc1c(N/C=C/C(=O)c2ccc(Cl)cc2)c(=O)n(-c2ccccc2)n1C", "Potency": "inactive"}
{"compound": "O=C(N/N=C/c1ccc(-c2cccc(C(F)(F)F)c2)o1)c1ccccc1O", "Potency": "active: 8.2 µM"}
{"compound": "CCOC(=O)c1cnc2ccc(OCC)cc2c1N1CCN(c2ccccc2OC)CC1", "Potency": "active: 11.6 µM"}
{"compound": "COC(=O)c1ccc(COc2cc(O)c3c(c2)OC(C)(C)CC3=O)cc1", "activity change, negative = growth inhibition": "inconclusive: -30.3% [inhibitor]"}
{"compound": "COCCNC(=O)[C@@H]1CCCN1S(=O)(=O)c1cccc2cccnc12", "Potency": "inactive"}
{"compound": "N=c1n(CCN2CCCCC2)c2ccccc2n1CC(O)c1cccc(Br)c1", "note": "(stereo unspecified)", "Potency": "active: 16.4 µM"}
{"compound": "Cc1cc(=O)n(CC(=O)Nc2cc(Cl)ccc2C)c(C(C)C)n1", "Potency": "inactive"}
{"compound": "O=C(N/N=C/c1ccc(O)cc1)c1ccc(COc2cc(Cl)ccc2Cl)o1", "Potency": "inconclusive: 20.6 µM [inhibitor, single point]"}
{"compound": "CCOC(=O)Cn1nnnc1CN(Cc1ccc(OC)cc1)Cc1cc2cc(CC)ccc2[nH]c1=O", "Potency": "inconclusive: 29.1 µM [inhibitor, single point]"}
{"compound": "Cc1ncoc1C(=O)Nc1ccc2c(c1)OCCO2", "Potency": "inconclusive: 25.9 µM [inhibitor, single point]"}
{"compound": "COc1ccc(OC)c(NC(=O)C(C#N)=Cc2ccco2)c1", "Potency": "inactive"}
{"compound": "CC(OC(=O)c1cc(S(=O)(=O)N2CCOCC2)ccc1F)C(=O)NC1CCCCC1C", "note": "(stereo unspecified)", "Potency": "inactive"}
{"compound": "CC(CC(c1ccccc1)N1CCc2ccccc2C1)=NO", "note": "(stereo unspecified)", "Potency": "active: 18.4 µM"}
{"compound": "COCC(=O)Nc1cc(C(=O)N2CCCC(C(C)=O)C2)cc2nc(-c3ccccc3)n(C)c12", "note": "(stereo unspecified)", "Potency": "inactive"}
{"compound": "CCOc1ccc(CCNC(=O)CSc2cc(=O)n(C)c3ccc(Cl)cc23)cc1OCC", "Potency": "inconclusive: 25.9 µM [inhibitor, single point] and inconclusive: 16.4 µM [inhibitor, partial curve, poor fit]"}
